Among all 350,000 compounds or so, about 260 (0.074%) were called active. Inconclusive results, whose numbers are uncertain, are shown with a selection of clear calls. Calls follow the shape of the dose curve; as a rule, active = well fitted inhibition curve with a large enough effect; inconclusive = small, poorly fitted or top-dose-only effect; inactive = no such curve, though single readings can be large or run the other way. Where the call is inconclusive, the potency comes from a doubtful curve fit.
target: Ferritin light chain (Equus caballus) (UniProt P02791); experiment: qHTS Assay for Identification of Novel General Anesthetics; settings: apoferritin/1-aminoanthracene competitive binding, fluorescence; series mostly up to 77.5 µM; also: nearly all actives have a fitted effect of over 20% in size
Summary of the method: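 Probe: 1-aminoanthracene (50% saturated, PBS). Protein: horse-spleen apoferritin, 10 uM. Incubation: 10 min, room temperature. Detection: 380 nm excitation, 535 nm emission. Analysis: normalized response, four-parameter Hill.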
Potency is read from the fitted curve at half-maximal effect; tags tell the direction and shape of the fitted curve.

Sequence of UniProt P02791 (P02791 whole entry, looked up): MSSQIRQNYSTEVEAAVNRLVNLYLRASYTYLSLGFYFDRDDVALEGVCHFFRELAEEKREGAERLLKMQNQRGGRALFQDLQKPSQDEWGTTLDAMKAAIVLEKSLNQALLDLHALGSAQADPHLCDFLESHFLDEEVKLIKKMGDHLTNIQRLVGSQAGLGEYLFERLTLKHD

Row | Compound | Potency
1 | O=C(NCc1cccnc1)C(=O)Nc1nc(C23CC4CC(CC(C4)C2)C3)cs1 | inconclusive: 31.6 µM [inhibitor, single point]
2 | Cc1oc(-c2ccccc2Cl)nc1CSCC(=O)NC1CCCC1 | inconclusive: 39.8 µM [inhibitor, single point]
3 | CNNC(=S)NC1CC2CC1C1C=CCC21 (stereo unspecified) | inconclusive: 56.2 µM [inhibitor, single point]
4 | O=C(Cc1cccs1)N1CCCC(c2nc3c(nnn3Cc3ccccc3Cl)c(=O)[nH]2)C1 (stereo unspecified) | inconclusive: 22.4 µM [inhibitor, partial curve]
5 | COc1cc(C2CC(=O)N3CN(Cc4ccco4)CSC3=C2C#N)ccc1OCc1ccccc1 (stereo unspecified) | inconclusive: 39.8 µM [inhibitor, partial curve]
6 | CNC(=O)CC12CC3CC(CC(C3)C1)C2 | inconclusive: 15.8 µM [inhibitor, partial curve]
7 | Cn1c(=O)c([N+](=O)[O-])c(Cl)c2ccccc21 | inactive
8 | Cn1c(=N)n(CC(=O)C(C)(C)C)c2ccccc21 | inconclusive: 35.5 µM [inhibitor, partial curve]
9 | Cn1cccc1C(C#N)c1ncc(C(F)(F)F)cc1Cl (stereo unspecified) | inconclusive: 31.6 µM [inhibitor, partial curve]
10 | CC(C)(C)CC(=O)Nc1ccc(S(=O)(=O)N2CCCC2)cc1 | inconclusive: 28.2 µM [inhibitor, partial curve]
11 | Cc1cccc(NC(=O)c2ccccc2O)c1C | inconclusive: 28.2 µM [inhibitor, partial curve]
12 | O=C(COc1ccc(-c2ccccc2)cc1)N1CCCC1 | inactive
13 | O=C(N/N=C/c1cccc(Cl)c1Cl)Nc1ccccc1 | inconclusive: 3.55 µM [inhibitor, partial curve]
14 | CCN(CC)C(=O)c1sc2c(c1C)c(=O)n(-c1ccccc1)c(=O)n2Cc1c(C)cc(C)cc1C | inactive
15 | COc1ccc(-c2cn3nc(N4CCC(C(=O)Nc5ccccc5OC)CC4)sc3n2)cc1 | inactive
16 | Cc1ccc(NC(=O)CS(=O)CC(=O)NCCCc2ccccc2)cc1Cl (stereo unspecified) | inconclusive: 3.55 µM [inhibitor, full curve]
17 | Cc1ccc(CCNC(=O)c2sc3ncccc3c2-n2c(C)ccc2C)cc1 | inactive
18 | Cc1ccc(C)c(NC(=S)NCCSc2ccc(Cl)cc2)c1 | inactive
19 | O=C(NCc1ccccc1F)c1ccc(S(=O)(=O)Nc2cccc(C(F)(F)F)c2)cc1 | inconclusive: 50.1 µM [inhibitor, single point]
20 | CCS(=O)(=O)N1CCN(c2ccc([N+](=O)[O-])c(NCc3cccnc3)c2)CC1 | inconclusive: 39.8 µM [inhibitor, single point]
21 | CCc1nnc(NC(=O)CSc2nccn2Cc2ccc(C)cc2)s1 | inconclusive: 20 µM [inhibitor, partial curve]
22 | CN(Cc1ccccc1)C(=O)COC(=O)c1ccc2ccccc2n1 | inconclusive: 15.8 µM [inhibitor, partial curve]
23 | COc1ccc2c(c1)c1ncn(CCN3CCNCC3)c(=O)c1n2C | inactive

Row | Compound | Potency
24 | Cc1cccc(NCc2ccccc2O)c1C | inconclusive: 39.8 µM [inhibitor, single point]
25 | COC(=O)c1ccc(NC(=O)CN2CCN(CCO)CC2)cc1 | inactive
26 | O=C(Nc1cc(C(F)(F)F)ccc1N1CCOCC1)c1ccc(Cl)nc1 | inconclusive: 50.1 µM [inhibitor, single point]
27 | O=C(COc1ncnc2ccc(Br)cc12)Nc1ccc(N2CCOCC2)cc1 | inconclusive: 15.8 µM [inhibitor, partial curve]
28 | COc1cc(CN2CCNC(=O)C2CC(=O)N2CCCCO2)cc(OC)c1 (stereo unspecified) | inactive
29 | CC1(C(=O)OCC(=O)Nc2ccccc2)CC1(Cl)Cl (stereo unspecified) | inconclusive: 31.6 µM [inhibitor, partial curve]
30 | COc1ccc(N(Cc2ccccc2)S(=O)(=O)c2cccc(C(=O)NC3=NCCS3)c2)cc1 | inconclusive: 3.98 µM [inhibitor, partial curve]
31 | Cc1nc(NCCc2cnc[nH]2)c2oc3ccccc3c2n1 | inactive
32 | CN(C)CCNc1c(N)c(=O)oc2ccccc12 | inconclusive: 39.8 µM [inhibitor, single point]
33 | CCOC(=O)N1CCN(C(=O)CSc2nc3c([nH]c4ccccc43)c(=O)n2C)CC1 | inactive
34 | O=C(c1ccc(-c2nc3ccccc3s2)o1)N1CCN(c2ccccc2O)CC1 | inconclusive: 22.4 µM [inhibitor, partial curve]
35 | CCOc1ccc(OCc2ccc(C(=O)NCc3cccnc3)o2)cc1 | inconclusive: 17.8 µM [inhibitor, partial curve]
36 | COc1cc(/C=C/C(=O)c2ccc3c(c2)OCCO3)cc(OC)c1OC | inactive
37 | CCOC(=O)N1CCN(C(=O)CSc2nc(-c3cccc(C)c3)ns2)CC1 | inconclusive: 35.5 µM [inhibitor, partial curve]
38 | Cc1cccc(-n2c(CCc3ccccc3)nnc2SCC(=O)c2ccccc2)c1 | inconclusive: 56.2 µM [inhibitor, single point]
39 | COc1ccc(S(=O)(=O)c2cnc3cc(OC)c(OC)cc3c2N2CCCC(C)C2)cc1 (stereo unspecified) | inconclusive: 0.794 µM [inhibitor, full curve]
40 | COc1cc(CNC23CC4CC(CC(C4)C2)C3)ccc1OCc1ccccc1 | inconclusive: 25.1 µM [inhibitor, partial curve]
41 | O=S(=O)(NCCc1csc2nc(-c3ccccc3)nn12)c1cccs1 | inconclusive: 25.1 µM [inhibitor, partial curve]
42 | CC(C)CCOc1ccc(C2N=C(N)Nc3nc4ccccc4n32)cc1 (stereo unspecified) | inconclusive: 14.1 µM [inhibitor, partial curve]
43 | N#CC1=C(N)Oc2cc(O)c(C=Nc3ccccc3)cc2C1c1ccccc1 (stereo unspecified) | inactive
44 | Cc1ccc[n+](CC2OCc3ccccc3CO2)c1 | inactive
45 | N#Cc1nc(-c2ccc(OCc3ccc(Cl)cc3)cc2)oc1NCc1cccnc1 | inconclusive: 28.2 µM [inhibitor, partial curve]
46 | CCCCc1ccc(NC(=O)c2cc(-c3ccc(C)c(F)c3)on2)cc1 | inconclusive: 11.2 µM [inhibitor, partial curve]
